According to the RNAGym collection of RNA variant scans (doi:10.7554/elife.90254):
Read counts are not given, so values of variants with three or more changes are uncertain.

B1: LINE1-mini (parent)
chain: GGCAGAGCUCAACACAGCGUGGCAAAGUGGCUGUGGCUAGACUGCC

Variants of: B1
Test: self-cleavage, relative activity (ratio to wild type); higher = more cleavage; in vitro, sequencing; the parent is a self-cleaving ribozyme
For G1A C15A C18A, the self-cleavage was 0.07. Variant G1A C13A C37A A39U has a self-cleavage of 0.03. Work on G1A C31A C37U A41U C46A yielded a self-cleavage of 0.04. Variant G1A G19U G27A has a self-cleavage of 0.08. With G1A C8U C31A C42A the self-cleavage was 0.67. Work on G1A C15G U20C U34G G36C yielded a self-cleavage of 0.07. G1A G7C A41U gave a self-cleavage of 0.63. Work on G1C A4C A24C U32A C37G yielded a self-cleavage of 0.01. Work on G1A C10A G29U G30U yielded a self-cleavage of 0.04. For G1A G17U C18A G21U, the self-cleavage was 0.14. For G1A G2C A6U C8U G19A A25C G30C U43A, the self-cleavage was 0.12. G1A G29A C37G showed a self-cleavage of 0.02. With G1A G29A G30C G36A the self-cleavage was 0.27. With G1A G7U G17C the self-cleavage was 0.09. With G1A C13U A14G the self-cleavage was 0.14. G1A U9G C23A G33C gave a self-cleavage of 0.05. G1A C8U U28A G29C C31A gave a self-cleavage of 0.96. With G1A C13U G33U the self-cleavage was 0.12. G1A G17A A26C G27U C31G U32C gave a self-cleavage of 0.08. With G1A G7A U20G G30C the self-cleavage was 1.09. Work on G1A U9G A12C A14U C15A U20A U28C yielded a self-cleavage of 0. G1A G2U C10G U20G G35A gave a self-cleavage of 0.02. G1A G29C G40C gave a self-cleavage of 0.03. In the case of G1A G19U U34C, the self-cleavage is reported as 0.09. Work on G1A G17U C37A U38A yielded a self-cleavage of 0.02. Work on G1A G22A G30A C31U yielded a self-cleavage of 0.2. With G1A G19C G40C A41C C45A the self-cleavage was 0.07. G1A C13U G21A A41U gave a self-cleavage of 0.1. G1A U9A C31U U38C showed a self-cleavage of 0.01. For G1A G5A G36U, the self-cleavage was 0.06. G1A G27U C37U gave a self-cleavage of 0.07. For G1A U9C C13G A14G U38C, the self-cleavage was 0.05. Variant G1A G17U C23A G44U has a self-cleavage of 0.04. Variant G1A G2C A12U G19U has a self-cleavage of 0.03. G1A G5U C10A U32C U34A gave a self-cleavage of 0.04. For G1A G29U G33A, the self-cleavage was 0.1. For G1A G5C C8G C23U G29A, the self-cleavage was 0.26. Variant G1A U9G A11C G22U has a self-cleavage of 0.02. Work on G1A C8U A12U A14U C37A yielded a self-cleavage of 0.07. For G1A G17U G30U, the self-cleavage was 0.08. G1A G5C A6U G7A C18A G33U C42U gave a self-cleavage of 2.07. G1A C8G G22U G40A gave a self-cleavage of 0.21. G1A U20C C45G gave a self-cleavage of 0.09. G1A C13A G17A G21A G35A showed a self-cleavage of 0.08. G1A C8G G17A U38G G40A U43G showed a self-cleavage of 0.15. G1A G19U A24U A26U U28A U34G showed a self-cleavage of 0.12. For G1A C8G U32C G33C G44A, the self-cleavage was 0.04. Variant G1A G7A A11C U20C has a self-cleavage of 0.07. G1A G2C G7A U38A gave a self-cleavage of 0.18. In the case of G1A G19U G29U C37G A39C C45U, the self-cleavage is reported as 0.02. In the case of G1A C13U U34G C42U, the self-cleavage is reported as 0.02. G1A G21A C45G gave a self-cleavage of 0.19. Work on G1A U20G G29C G36U yielded a self-cleavage of 0.02. G1A G7A A41G C46A showed a self-cleavage of 0.88. Variant G1A G19A G21A A26C U34C has a self-cleavage of 0.5. G1A G5C C23A U34C showed a self-cleavage of 0.07. In the case of G1A G5C C23A A25G A41C, the self-cleavage is reported as 0.02. Variant G1A U20C G40U has a self-cleavage of 0.06. Variant G1A U9G C18A G27C has a self-cleavage of 0.56. G1A G17A G19A G27A G35A G44U C46A showed a self-cleavage of 0.06. With G1A C37A C42A the self-cleavage was 0.05. For G1A C13G C15U G35C A39G C46G, the self-cleavage was 0.16. In the case of G1A C10A G27U, the self-cleavage is reported as 0.04. In the case of G1A C8U A26U G29U U34G, the self-cleavage is reported as 0.02. G1A G7C A12G G29U G30A gave a self-cleavage of 0.09. In the case of G1A C13G U20C A24C G35C, the self-cleavage is reported as 1.76. For G1A G35A C37U, the self-cleavage was 0.09. For G1A G5U A26C C31U G33U, the self-cleavage was 0.04. Work on G1A G21A A24C A26C yielded a self-cleavage of 0.12. Work on G1A C10A G22U G33U yielded a self-cleavage of 0.05. G1A G27U U28A showed a self-cleavage of 0.4. With G1A G2C A26U U28G G36A the self-cleavage was 0.18. G1A G17U G21C G29A G33U gave a self-cleavage of 0.04. G1A C18G G19A G44C showed a self-cleavage of 0.05. In the case of G1A G22A C31U C42A, the self-cleavage is reported as 0.05. In the case of G1A U9C G33U, the self-cleavage is reported as 0. Work on G1A G19C A26G U34C yielded a self-cleavage of 0.11. Variant G1A G2A A16U C18G U20A G22A has a self-cleavage of 0.16. G1A U28A U32A gave a self-cleavage of 0.04. With G1A G22U U34A the self-cleavage was 1.61. For G1A G22U U34C, the self-cleavage was 0.09. G1A G2C A4G A11C showed a self-cleavage of 0. In the case of G1A G2U U34C C42G, the self-cleavage is reported as 0.05. With G1A G30A U38C the self-cleavage was 1.56. Work on G1A C18U C42A yielded a self-cleavage of 0.24. For G1A G40C C42G, the self-cleavage was 0.06. In the case of G1A G2C A6U A16G G17U, the self-cleavage is reported as 0.04. Variant G1A U38C G44C has a self-cleavage of 0.05. G1A U32C U34C showed a self-cleavage of 0.04. Work on G1A G7U C8A A16G G19C U32C yielded a self-cleavage of 0.06. Variant G1A C15A A26U has a self-cleavage of 0.08. Work on G1A C18A G19U A25G yielded a self-cleavage of 0.01. G1A G44U C45A gave a self-cleavage of 0.22. Work on G1A C13U U34G C46A yielded a self-cleavage of 0.03. Work on G1A U9A C31U yielded a self-cleavage of 0.02. G1A G27A G36U A41G showed a self-cleavage of 0.09. G1A C10G G17A A26C G27A showed a self-cleavage of 0.37. G1A C10A G30A showed a self-cleavage of 0. Variant G1A G2C C23U has a self-cleavage of 0.21. Work on G1A C8G G19A C23U yielded a self-cleavage of 0.09. Variant G1A G5C C23A G27U G30U has a self-cleavage of 0.04. Work on G1A G19A A25C C37G G40C G44U yielded a self-cleavage of 0.03. G1A C8G C13U G21C G44U gave a self-cleavage of 0.04. Variant G1A G7C U9A A41G C46A has a self-cleavage of 0.03. G1A G7U C10G gave a self-cleavage of 0.04. For G1A U28A C37A A41U, the self-cleavage was 0.15. For G1A C15U U43A, the self-cleavage was 0.05. G1A G5A C13U U43G C45G gave a self-cleavage of 0.43. In the case of G1A G17C U38C G40A, the self-cleavage is reported as 0.07. G1A G29A G35C A39C showed a self-cleavage of 0.08. Work on G1A G7U A14U U20A G22C G36C A39G G44A yielded a self-cleavage of 0.34. Work on G1A G5U G19A U34G yielded a self-cleavage of 0.05. In the case of G1A G5U C31U G36A G40U, the self-cleavage is reported as 0.01. G1A G5U U38C gave a self-cleavage of 0.09. In the case of G1A G17A A26G, the self-cleavage is reported as 0.2. G1A G33C C37U A39U gave a self-cleavage of 0.05. G1A C13A C15G showed a self-cleavage of 0.07. With G1A C15A U34C A39C the self-cleavage was 0.03. G1A G7C A14G G17U G27U U43G showed a self-cleavage of 0.01. G1A C37U C46U showed a self-cleavage of 0.08. Variant G1A C15G C23G U43A has a self-cleavage of 0. Variant G1A C37G A39G U43C has a self-cleavage of 0.02. In the case of G1C A4C C23A C37G, the self-cleavage is reported as 0.05. With G1A C13G A14U G17C A41G C45U C46A the self-cleavage was 0. Work on G1A G2C G5U A6G A14G G17U C18A G30U yielded a self-cleavage of 0.06. G1A U9A A24G U34C G35U A41U gave a self-cleavage of 0.24. G1A G33A A39U gave a self-cleavage of 0.07. G1A C8U C13G C23U A24U showed a self-cleavage of 0.03. G1A C23U A24G gave a self-cleavage of 0.61. With G1A G19U G21C A41U the self-cleavage was 0.38. G1A C23U G27A gave a self-cleavage of 0.27. G1A G7U U20C C46U showed a self-cleavage of 0.05. In the case of G1A G35U G40U A41U, the self-cleavage is reported as 0.03. G1A C15A G33A gave a self-cleavage of 0.05. Work on G1A G5C G7U U34A yielded a self-cleavage of 0.59. Variant G1A G2U G19C G40U has a self-cleavage of 0.02. Variant G1A G2C A4U C18U G27A has a self-cleavage of 0.23. For G1A G29A G36A, the self-cleavage was 0.03. G1A G7U A11G showed a self-cleavage of 0.07. In the case of G1A G30A G44A, the self-cleavage is reported as 2.33. G1A G2U A12U C18A A26U showed a self-cleavage of 0.03. In the case of G1A G5C A16G G33C, the self-cleavage is reported as 0.04. With G1A G2A C3G U9C U20C U38A A41U the self-cleavage was 0.5. G1A U9C A11U A24C G29A G30C G33C A39U showed a self-cleavage of 0.02. Variant G1A G27A G36C has a self-cleavage of 0.06. Work on G1A C23G G30C U34C G35U yielded a self-cleavage of 0.02. For G1A G2C U32G, the self-cleavage was 0.06. Work on G1A C8U G36A C37U A39C yielded a self-cleavage of 0.6. For G1C A4C C8G A12G C18U G27A, the self-cleavage was 0.01. In the case of G1A G17C U28A G30C C31U A41U C42U, the self-cleavage is reported as 0.02. Work on G1A G17U G21U G36C yielded a self-cleavage of 0.09. Variant G1A G22C G33C has a self-cleavage of 0.03. G1C A4C A6U C10A A16U G22C G27U G30C A41U gave a self-cleavage of 0.01. G1A G5A C10U gave a self-cleavage of 0.49. For G1A G5U A6G U9G U38G A41U, the self-cleavage was 0.03. G1A G2U G22A C37U U38G gave a self-cleavage of 0.05. Work on G1A C8U G17C yielded a self-cleavage of 0.81. Variant G1A C8U G22U G36C C37G A39U has a self-cleavage of 0.54. G1A C10A C15U G27C U32A G36U A41C showed a self-cleavage of 0.02. In the case of G1A G5A G35A, the self-cleavage is reported as 0.18. With G1A C10A C18A A26U the self-cleavage was 0.14. G1A U9G A24G C37U gave a self-cleavage of 0.09. G1A G22A A41U C46U gave a self-cleavage of 2.7. For G1A C18G G21C, the self-cleavage was 0.43. G1A G2U C8G G36U showed a self-cleavage of 0.08. G1A C10U C23A showed a self-cleavage of 0.51. In the case of G1A G17U U28C U34G C37U, the self-cleavage is reported as 0.04.
